This sample is rich in variants without activity.

B1: tRNA (parent)
chain: CUCUCGGUAGCCAAGUUGGUUUAAGGCGCAAGACUUUAAUUUAUCACUACGAAAUCUUGAGAUCGGGCGUUCGACUCGCCCCCGGGAGAUUUUUUCCUCGAGCAA

This data set covers variants of B1. Briefly: nonsense suppression (GFP-seq) (ratio to wild type); higher = more function; SUP4oc tRNA, yeast GFP reporter sort-seq. Put shortly: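 Yeast carrying genome-integrated SUP4oc tRNA variants from a library with ~3% random mutations were grown in raffinose/galactose medium with 80 mg/L adenine. Each strain also carried a galactose-driven GFP ochre reporter and RFP. Cells were sorted into GFP/RFP bins, and each bin was Illumina-sequenced (phred ≥30). Nonsense suppression (GFPSEQ) is the bin median GFP/RFP, weighted by each variant's estimated cell share per bin, relative to wild-type SUP4oc; variants needed ≥100 reads and ≥30 cells.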
As to CUCUCGGUAGCCAAGUUGGUUUAAGGCUCAAGACUUUAAUUUAUCACUACGAAAUCUUGAGAUCGGGCUAUCGACUCGCCCCCGGGAGAUUUUUUCCUCGAGCAA, the nonsense suppression was at most 0.026.
The result for CUCCCGGUAGCCAAGUUGGUUUAAGGCGCAAGACUUUAAUUUAUCACUACGAAAUCUGGAGAUCGGGCGUUCGCCUCGCCCCCGGGAGAUUUUUUCCUCGAGCAA reads at most 0.026.
The figure for CUCUCGGUAGCCAAGUUGGUUUAAGGCGCAAGACUUUAAUUUAUCACUACGAAAUCUUGAGAUCGGGCGGUCGAUUCGCCCCCGGGAGAUUUUUUCCUCGAGCAA is at most 0.026; for CCCUCGGUAGCCAAGUUGGUUUAAGGCGCAAGACUUUAAUUUAUCACUACGAAAUCUUGAUAUCGGGCGUUCGACUCGCCCCCGGGAGAUUUUUUCCUCGAGCAA it is 0.122; for AUCUCGGUAGCCAAGUCGGUUUAAGGCGCAAGACUUUAAUUUAUCACUACGAAAUCUUGAGAUCGGGCGUUCGACUAGCCCCCAGGAGAUUUUUUCCUCGAGCAA it is at most 0.026.
With CUCUCGGUAGCCAAGUUGGUUUAAGCCGCAAGGCUUUAAUUUAUCACUACGAAAUCUUGAGAUCGGGCGUUCGACUCGCCCCCCGGAGAUUUUUUCCUCGAGCAA, the nonsense suppression was at most 0.026.
The figure for CUCUCGGGAGCCAAGUUGGUUUAAGGCGCAAGACUUUAAUUUAUCACUACGAAAUCAUGAGAUCGGGCGUUCGACUCGCCCCCGGGAGAUUUUUUCCUCGAGCAA is at most 0.026; for CUCUCGGUAGCCAAGUUGGUUUAAGGCGCAAGACUUUAAUUUAUCACUACGAAAUCUUGAGAUCGGGCGCUCGGCUCGCCCCCGGGCGAUUUUUUCCUCGAGCAA it is at most 0.026.
With CUCUCGGUAGCCAAGUUGGUUUAAGGCGCAAGACUUUAAUUUAUCACUACGAAAUCUUGAGAUCGGGCGUUCGACUUGCCCCAGGGAGAUUUUUUCCUCGAGCAA, the nonsense suppression is at most 0.026.
For CUCUCGGUAGCCAAGUUGUUUUAAGGCGCAAGACUUUAAUUUAUCACUACGAAAUCUUGAGAUCGGUCGUUCGACUCGCCCCCGGGAGAUUUUUUCCUCGAGCAA, the nonsense suppression was at most 0.026.
The figure for CUCUCGGGAGCCAAGUUGGUUUAAGGUGCAAGACUUUAAUUUAUCACUACGAAAUCUUGAGAUCGGGCGUCCGACACGCCCCCGGGAGAUUUUUUCCUCGAGCAA is at most 0.026; for CUCUCGGUAGCCAAGUUGGUUUAAUACGCAAGACUUUAAUUUAUCACUACGAAAUCUUGAGAUCGGGCGUUCGACUCGCCCCCGGGAGAUUUUUUCCUCGAGCAA it is at most 0.026; for CUCUCGGUAGCCAAGUUGGUUUAAGGCGCAAGACUUUAAUUUAUCACUACGAAAUCUUGAGAUCGGGCGUCCGACUCGCCCACGGGAGAUUUUUUCCUCGAGCAA it is at most 0.026.
The result for CUCUUGGUAGCCAAGUUGGUUUAAGGCGCAAGACUUUAAUUUAUCACUACGAAAUCUUGAGAUCGGGCGUUCGAUUCGCCCCCGGGAGAUUUUUUCCUCGAGCAA reads 0.0347.
In the case of CUCUCGGAAGCCAAGUUGGUUGAAGGCGCAAGACUUUAAUUUAUCACUACGAAAUCUUGAGAUCGGCCGUUCGACUCUCCCCCGGGAGAUUUUUUCCUCGAGCAA, the nonsense suppression was at most 0.026.
The result for CUCUCGGUAGCCAAGUUGAUUUAAGGCGCAAGACUUUAAUUUAUCACUACGAAAUCUUGAGAUCGGGCGUUCCACUCGCCCCCGGGAGAUUUUUUCCUCGAGCAA reads at most 0.026; that for CUCUCGGUAGCCAAGUUGGUUUAAGGCGCCAGACUUUAAUUUAUCACUACGAAAUCCUGAGAUCGGGCGGUCGACUCGCCCCCGGGAGAUUUUUUCCUCGAGCAA, at most 0.026; that for CUCUCGGUAGUCAAGUUGGUUUAAGGCGCAAAACUUUAAUUUAUCACUACGAAAUCUUGAGAGCGGGUGUUCGACUCGCCCCCGGGAGAUUUUUUCCUCGAGCAA, at most 0.026.
The figure for CUCUCGGUAGCCAAGUUGGUUUCAGGCGCAAGACUUUAAUUUAUCACUACGAAAUCUUGAGAUCGGGCGUUCGACUCGCCCCCGGGAGAUUUUUUCCUCGAGCAA is at most 0.026; for CUCUCGGUAGCCAAGUUGGUUUAAGGCGCAAGACUUUAAUUUAUCACUACGAAAUAUUGAGAUCGGGCGAUCUACUCGCCCCCGGGAGAUUUUUUCCUCGAGCAA it is at most 0.026.
For the variant CUCUCGGUAGCCAAAUUGGUUUAAGGCGCAGGAAUUUAAUUUAUCACUACGAAAUCUUGAGAUCGUGCGUACGACUCGCCCCCGGGAGAUUUUUUCCUCGAGCAA, the nonsense suppression was at most 0.026.
The figure for CUCUCGGUAGCCAAGUUGGUUUACGGCGCAAGACUUUAAUUUAUCACUACGAAACCUUGAGAUCGGGCGUUCGACUCGCCCCCGGGAGAUUUUUUCCUCGAGCAA is 0.365; for CUCUCAGUAGCCAAGUUUGUGUAAGGCGCAAGACUUUAAUUUAUCACUACGAAAUCUUGAGAUCGGGCGUUUGACUCUCCCCCGAGAGAUUUUUUCCUCGAGCAA it is at most 0.026; for UUCUCGGUAGCCACCUUGGUUUAAGGCGCAAGACUUUAAUUUAUCACUACGAAAUCUUGAGAUCGGGCGUUCGACACGCCCCCGGGAGAUUUUUUCCUCGAGCAA it is at most 0.026.
Regarding CUCUCGGUACCCAAGUUGGUUUAAGGCGCAAGACUUUAAUUUAUCACUACGAAAUCUUGAGAUCGGGCGUUAGACUCGCCCCCGGGAGAUUUUUUCCUCGAGCAA, the nonsense suppression is at most 0.026.
The result for CUCUCGGAAGCUAAGUUGGUUUAAGGCGCAAGACUUUAAUUUAUCACUACGAAAUGUUGAGAUCGGGCGUUAGACUCUGCCCCGGGAGAUUUUUUCCUCGAGCAA reads at most 0.026.
The result for CUCUCUCUAGCCAAGUUGGUUUAAGGCUCAAGACUUUAAUUUAUCACUACGAAAUCUUGAGAUCGGGCGUCCGACUCGCCCCCGGGAGAUUUUUUCCUCGAGCAA reads at most 0.026; that for CUCUCGGUAGCCAAGUUGGUUUAAGUCGCAAGACUUUAAUUUAUCACUACGAAAUCCUGAGAUCGGGCGUUCGACUCGCCCCCGAGAGAUUUUUUCCUCGAGCAA, at most 0.026; that for CUUUCGGUAGCCAAGUUGGUUUAAGGCGCAAGACUUUAAUUUAUCACUACGAAAUCUUGAGACCGGGCGUUCGACUCGCCCACGGGAGAUUUUUUCCUCGAGCAA, at most 0.026.
In the case of CUCUCGGUAGCCAAGUUGGUUUAAGGCGCAAGACUUUAAUUUAUCACUACGAAAUCUUGAGAUCGGGCGUUCGACCAGCCCCCGGGAGAUUUUUUCCUCGAGCAA, the nonsense suppression is at most 0.026.
The figure for CUCUCGGUAGCCAAGUUGGUUUAAGGCGCAAGACUUUAAUUUAUCACUACGAAAUCUUCAGAUCGUGCGGUCGACUCGCCCCCGGGAGAUUUUUUCCUCGAGCAA is at most 0.026.
The result for CUCUCGGUAGCCAAGUUGGAUUACGGCGCAAGACUUUAAUUUAUCACUACGAAAUCUUGAGAUCGGGCGUUCGACUCGCCCACGGGAGAUUUUUUCCUCGAGCAA reads at most 0.026; that for CUCACGGUAGCCAAGUUGGUUUAAGGCGCAAGACUUUAAUUUAUCACUACGAAAUCUAAAGAUCGGGCGUUCGACUCGCCCCCGGGAGAUUUUUUCCUCGAGCAA, at most 0.026; that for CUCUCGGUAGCCAAGUUGGCUUAAGGCGCAAGACGUUAAUUUAUCACUACGAAAUCUUGAGAUCGGGCGUUCCACUCGCCCCCGGGAGAUUUUUUCCUCGAGCAA, at most 0.026.
Regarding CUCUCGGUAUCCAAGUUGGUUUAAGGCGCAAGACUUUAAUUUAUCACUACGAAAUCUUGAGAUCGGGCGUUCGCUUCGCCCCCGGGAGAUUUUUUCCUCGAGCAA, the nonsense suppression is at most 0.026.
As for CUCUCGGUAGCCAGGUAGGUUUAAGGCGCAAGACUUUAAUUUAUCACUACGAAAUCUUGAGGUCGGGCGUUCGACUCGCCCCCGGGAUAUUUUUUCCUCGAGCAA, the nonsense suppression is at most 0.026.
The figure for CUCUCGGUAGCCAAGUUGGUUUAAGCCGCAAGACUUUAAUUUAUCACUACGAAAUCAUGAGAUCGGGCGUUCGACUCGCCCCCGGGAGAUUUUUUCCUCGAGCAA is at most 0.026.
Turning to CUCUCGGUAGCCAUGUUGGUUUAAGGCGCAACACUUUAAUUUAUCACUACGAAAUCUUGACAUCGGGCGUUCGAUUCGCCCCCGGGACAUUUUUUCCUCGAGCAA, the nonsense suppression is at most 0.026.
The result for AUCUCGGUAUCCAAGUUCAUUUAAGGCGCAAGACUUUAAUUUAUCACUACGAAAGCUUGAGAUCGGGCGUUCGACUCGCCCCCGGGAGAUUUUUUCCUCGAGCAA reads at most 0.026.
The figure for CUCUCGGUAGCCGAGUUGGUUUAAGGCGCAAGACUUUAAUUUAUCACUACGAAAUCUUGAGAUCGGGCGUUCGACUGGCCCCCGGGAGAUUUUUUCCUCGAGCAA is at most 0.026; for CUCUCGGUAGCCAAGUUGGUUUAAGGCACAAGACUUUAAUUUAUCACUACGAAAUAUUGUGAUCGGGCGUUCGAUUCGCCCCCGGGAGAUUUUUUCCUCGAGCAA it is at most 0.026; for CUCUCGGUAACCAAGGUGGUUUAUGGCGCAAGACUUUAAUUUAUCACUACGAAAUCUUUAGAUCGGGCAUUCGACUCGCCCCCGGGAGAUUUUUUCCUCGAGCAA it is at most 0.026.
The result for CUCUCGUUAGCUAAGUUGGUUUAAGGCGCAAGACUUUAAUUUAUCACUACGAAAUCUUGAGAUGGGGCGUUUGACUCGCCCCCGGGAGAUUUUUUCCUCGAGCAA reads at most 0.026.
Take AUCUCGGUACCCAAGUUGGUUUAAGGCGCAAGACUUUAAUUUAUCACUACGAAAUCUUGAGAUCGGGCGUUCGACUCGCCACCGGGAGAUUUUUUCCUCGAGCAA: the nonsense suppression was at most 0.026.
As for CUCUCGGUAGCCAAGUUGGUUUAAGGCGAAAGAGUUUAAUUUAUCACUACGAAAUCUUGAGAUCGGGCGUUCGACUCGCCCUCGGGGGAUUUUUUCCUCGAGCAA, the nonsense suppression is at most 0.026.
On to CUCUCGGUAGCCACGUUGGUUUAAGGCGCAAGACUUUAAUUUAUCACUACGAAAUCUUGAGAUCGGGCGUUCGACUCACCCCCGGGAGAUUUUUUCCUCGAGCAA, for which the nonsense suppression was at most 0.026.
As for CACUCGGUCGCCAAGUUGGUUUAAGGCGCAAGACUUUAAUUUAUCACUACGAAAUCUUGAGAUCGGGCGUUCGACUCGCCCCCGGGAGAUUUUUUCCUCGAGCAA, the nonsense suppression was at most 0.026.
Regarding CUCUCGGCAGCCUAGUUGGUUUAAGGGGCAAGACUUUAAUUUAUCACUACGAAAUCUUGAGAUCGGGCGUUCGACUCGCCCCCGGGAGAUUUUUUCCUCGAGCAA, the nonsense suppression was at most 0.026.
For the variant CUCUCGGUAGCCAAGUUGGUUUAAGGCGCAAGACUUUAAUUUAUCACUACGAAAUCUUGAGAGCGGGCGUUCUACUCGCCCCCGGGAGAUUUUUUCCUCGAGCAA, the nonsense suppression was at most 0.026.
As for CUCUCUGUAGCCAAGUUGGUUUUAGGCGCAAGACUUUAAUUUAUCACUACGAAAUCUUGAGAUCGGGCGUUCGACUCGCCCCCGGGACAUUUUUUCCUCGAGCAA, the nonsense suppression is at most 0.026.
The figure for CUCUCGGUAGCCAAGUUGGUUUAAGGCGCAAGACUUUAAUUUAUCACUACGAAAUCUUGAGAUCAGGCGUUCGAGUCGCCCCCGGGAGAUUUUUUCCUCGAGCAA is at most 0.026; for CUCUCGGUAGCCAAGUUGGUUUAAGGCGCAAGCCUUUAAUUUAUCACUACGAAAUCUUGAGAUAGCGCGAUCGACUCGCCCCCGGGUGAUUUUUUCCUCGAGCAA it is at most 0.026; for CUCUCGGUAGCCAAGUUGGUUUAAGGCGCAAUUCUUUAAUUUAUCACUACGAACUCGUGAGAUCGAGCGUUCGACUCGCCCCCGGGAGAUUUUUUCCUCGAGCAA it is at most 0.026.
With UUCUCGGUAGCCAAGUUGGUUUACGGCGCAAGACUUUAAUUUAUCACUACGAAAUCUUGAGAUCGGGCGUUCGACUCGCCCCCGGGGGAUUUUUUCCUCGAGCAA, the nonsense suppression is at most 0.026.
